Assay results reported in PubChem BioAssay AID1346428 (National Center for Advancing Translational Sciences (NCATS), 2018).
The campaign covered roughly 48,000 compounds. About 1,200 (2.5%) were called active. Inconclusive results (about 2%) are left out.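 Rule for the calls: active = activation of at least 60% and not above a set upper limit (about 1 call in 100 departs from these limits); inconclusive = activation of 40% to 60%, or above that upper limit; inactive = activation under 40%.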 This is one part of the list.

These compounds were tested against Probable G-protein coupled receptor 32 (Homo sapiens) (UniProt O75388) (assay: qHTS for Agonists of Human Resolvin D1 Receptor DRV1). Conditions: CHO-K1 GPR32 beta-arrestin PathHunter luminescence, 90 min; at 76.9 µM; hits give high values; zero percent set by DMSO-only wells.
In short: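 Agonism was scored as beta-arrestin recruitment to ProLink-fused GPR32 in stably transfected CHO-K1 cells, giving a chemiluminescent beta-Gal signal; compounds were incubated 90 min at 37 °C.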
Note: 0% is about no effect.

Chain of UniProt O75388 (O75388 whole entry, looked up, the tested form may be a part): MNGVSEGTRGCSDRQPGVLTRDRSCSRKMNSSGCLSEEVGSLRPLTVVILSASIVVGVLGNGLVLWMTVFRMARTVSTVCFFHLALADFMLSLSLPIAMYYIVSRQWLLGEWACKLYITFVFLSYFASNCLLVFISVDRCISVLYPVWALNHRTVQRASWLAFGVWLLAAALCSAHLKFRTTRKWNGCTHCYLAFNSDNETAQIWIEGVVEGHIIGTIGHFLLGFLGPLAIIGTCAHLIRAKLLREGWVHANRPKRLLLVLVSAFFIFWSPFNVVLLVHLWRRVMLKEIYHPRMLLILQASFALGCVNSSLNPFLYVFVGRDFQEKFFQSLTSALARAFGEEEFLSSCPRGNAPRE

activation, inactive:
OC[C@H]1O[C@@H](n2cnc3cncnc32)[C@H](O)[C@@H]1O 9.52%, COC(=O)c1cc(NC(=O)Nc2ccc3snnc3c2)cc(C(=O)OC)c1 -8.86%, Cc1ccc(C)c(N2C(=O)N(Cc3c(F)cccc3Cl)c3ccccc3S2(=O)=O)c1 -4.37%, COc1ccc(N(CC(=O)Nc2ccc(C)c(C)c2)S(=O)(=O)c2ccc(C)cc2)cc1OC -16%, Cc1cccc(C)c1NC(=O)CN1C(=O)CCSc2ccc(S(=O)(=O)N3CCCC3)cc21 -11.7%, Cc1ccccc1-c1noc(-c2ccc(N3CCN(c4ccccc4)CC3)c([N+](=O)[O-])c2)n1 4.45%, CC(=O)OCc1cc(=O)n2nc(C3CCCCC3)sc2n1 14.8%, COc1ccc(S(=O)(=O)n2nc(C)c(S(=O)(=O)N3CCCCC3)c2C)cc1 11%, Cc1c(Cl)cccc1-n1ncc(C(=O)N2CCN(C)CC2)c1C1CCN(C(=O)OC(C)(C)C)CC1 26.6%, Cc1ccc(NC(=O)C(=O)NCC(c2cccnc2)N2CCOCC2)cc1 (centres undefined) 9.72%, CC1CCN(C(=O)c2ccc3c(c2)N(Cc2ccccc2F)C(=O)c2ccccc2S3(=O)=O)CC1 -10.6%, C=C(C)Cn1c(SCC(=O)Nc2ccccc2C)nc2sc3c(c2c1=O)CCCC3 0.0224%, CCc1cccc2c(CCO)c[nH]c12 25.1%, COc1ccc(CNC(=O)Cn2nc(C)n3cccc3c2=O)cc1 -16.9%, COc1ccc(-c2nc(SCC(=O)NC3CCCC3)c(-c3ccc(OC)cc3)[nH]2)cc1 -30.8%, COc1ccccc1N1CCN(C(=O)c2cc3c(=O)n(C)c4ccccc4c3s2)CC1 10.1%, COc1ccccc1-c1noc(-c2ccc(N3CCOCC3)c([N+](=O)[O-])c2)n1 -29.6%, COCCCN(Cc1ccco1)C(=O)c1cc2c(s1)-c1ccccc1OC2 -5.79%, CC(=O)c1ccc(N2CCN(c3ncnc4c3c(-c3ccccc3)cn4-c3ccc(C)c(Cl)c3)CC2)cc1 -2.26%, CC(C)Cn1c(=O)c2ccccc2n2c(CCC(=O)N3CCN(c4cccc(Cl)c4)CC3)nnc12 -46.4%, COc1ccc(NC(=O)Cn2c(=O)n(-c3ccc(C)cc3)c(=O)c3c2c2cc(C)ccc2n3C)cc1 -5.32%, Cc1nn(C)c(C)c1S(=O)(=O)N(CC(=O)Nc1ccc(F)cc1F)c1ccc(C(C)C)cc1 -26.2%, Cc1ccc(Cc2c(C)nc3nc(SCC(=O)NCCC(C)C)nn3c2C)cc1 5.33%, O=C(Nc1onc2c1CCCC2)c1ccccc1 24.2%, COc1cccc(CNC(=O)C(=O)NCC(c2ccco2)S(=O)(=O)c2ccccc2)c1 (centres undefined) -13.3%, O=C(CN1C(=O)CCn2nc(-c3ccccc3)cc21)NCc1ccccc1 -12%, COc1ccccc1CNC(=O)c1cnc2sc(N3CCCCC3)nn2c1=O -1.24%, COc1cccc(C2C(C(=O)Nc3ccccc3OC)=C(C)Nc3nc(-c4ccco4)nn32)c1 (centres undefined) -12.8%, CCCOc1cccc(C2c3c(oc4ccc(F)cc4c3=O)C(=O)N2CCc2ccc(OC)cc2)c1 (centres undefined) 8.97%, COc1ccc(-n2nc(C(=O)NCCc3ccc(OC)c(OC)c3)c3c4ccccc4n(C)c3c2=O)cc1 -16.1%, CCC(Sc1nnc2c3ccccc3n(CC)c2n1)C(=O)Nc1ccc(NC(C)=O)cc1 (centres undefined) -24.4%, CCC(C(=O)Nc1cc(C(F)(F)F)ccc1Cl)n1nc(C)c2sc3ccccc3c2c1=O (centres undefined) -13.5%, COc1ccccc1CNC(=O)Cn1nc(C)n2cccc2c1=O -12.2%, COc1ccc(C(=O)NCC(c2ccc(Cl)cc2)N2CCCCC2)cc1 (centres undefined) -29.1%, COc1cccc(CNC(=O)c2sc3ncccc3c2-n2c(C)ccc2C)c1OC -3.13%, COc1ccc(-c2noc(CSc3nc4ccc(C)cc4[nH]3)n2)cc1 23.5%, O=C(Cn1nc(Cc2cccnc2)c2ccccc2c1=O)Nc1ccc(F)c(Cl)c1 -25.3%, O=C(Cn1cnc2onc(-c3ccc(F)cc3)c2c1=O)N1CCN(c2ccc(F)cc2)CC1 19.2%, CCOc1ccc(-c2nnc(SCC(=O)Nc3ccc(C)cc3C)o2)cc1 3.98%, COC(=O)c1ccc(NC(=O)n2ncc3c(C)cccc32)cc1 13.1%, CCOC(=O)c1[nH]c2c(c1Cc1ccccc1C)C(=O)CC(c1ccccc1)C2 (centres undefined) -11.2%, COc1ccc(-c2cn3c(n2)sc2cc(C(=O)Nc4ccc(C)c(Cl)c4)ccc23)cc1 -5.98%, CCc1ccc(NC(=O)c2cnn(-c3c(C)cccc3C)c2C2CCN(C(=O)OC(C)(C)C)CC2)cc1 -14%, Cc1cc(=O)[nH]c2nnc(SCc3ccccc3F)n12 5.57%, CC1(C)N=C(SCc2ccc(Cl)cc2)c2ccccc2N1 0.917%, O=C(NCCc1ccccc1)C(=O)NCC(c1cccs1)S(=O)(=O)c1cccs1 (centres undefined) -2.06%, Cc1c(C(=O)N2CCCCCC2)c(S(=O)(=O)Nc2cccc(C#N)c2)c(C)n1C 0.64%, CCOC(=O)c1c(C)[nH]c(C)c1S(=O)(=O)N1CCC(C(=O)Nc2ccccc2CC)CC1 40.1%, Cc1ccc(S(=O)(=O)N2CCN(Cc3cc(=O)n4nc(-c5ccccc5Cl)sc4n3)CC2)cc1 12.1%, Cn1c(=O)cc(SCC(=O)NCc2ccc(F)cc2)c2cc(Cl)ccc21 -4.26%, COc1ccc(NC(=O)N2CCCn3nc(C)cc32)cc1OC -5%, CCc1ccc(-n2nc(CO)c(C(=O)NCc3ccccc3Cl)n2)cc1 -11.4%, Cn1c(=O)c(=O)n(C)c2cc(NS(=O)(=O)c3ccc(Br)cc3)c(Cl)cc21 -14.7%, CCCCNC(=O)CSc1nc2cc3c(cc2c(=O)n1Cc1ccc(C(=O)NCCc2ccc(OC)c(OC)c2)cc1)OCO3 -16.4%, CCn1c(C(=O)NCc2ccccc2Cl)cc2sc(Cl)cc21 -14.5%, COc1ccc(Cc2nc3ccccc3n2Cc2ccccc2C)cc1 -36.8%, O=C(NCc1cccc(Cl)c1)c1ccc(NC(=O)N2CCSc3ccccc32)cc1 -23.5%, COc1ccc(-c2cc3ccc(O)c(CN4CCCC(C)C4)c3oc2=O)cc1OC (centres undefined) -0.0448%, CC(Oc1ccccc1)C(=O)Nc1ccc(C(=O)OCc2cc(=O)n3nc(C4CC4)sc3n2)cc1 (centres undefined) -12.2%, O=C(CCC(=O)N1Cc2ccccc2Oc2ncccc21)NCc1cccc(Cl)c1 -7.45%, Cc1cccc(-c2nc3c4ccccc4nc(N4CCN(c5cccc(Cl)c5)CC4)n3n2)c1 14.7%, Cc1cccc(NC(=O)CSc2nc(-c3cccs3)nc3cc(=O)[nH]n23)c1 -21.6%, O=C(CSc1nc2ccccc2nc1Cc1ccccc1)N1CCc2ccccc21 0.83%, NC(=O)NC(=O)Cc1ccccc1 -9.92%, CCc1ccccc1NC(=O)Cn1c(=O)n(CCc2ccccc2)c(=O)c2sc3ccccc3c21 0.362%, COc1ccc(-c2c3c(nc4sc(C(=O)Nc5cccc(OC)c5)c(N)c24)CC(C)(C)CC3=O)cc1 -11.3%, Cc1cc(C)n2nc(CNS(=O)(=O)c3cccc(Cl)c3)nc2n1 -3.12%, Cc1cc(C(=O)N2CCN(c3ccccc3F)CC2)c2c(C)nn(-c3ccccc3)c2n1 -19.6%, COc1ccc(CCNC(=O)c2ccc(Cn3c(=O)c4cccn4c4cccnc43)cc2)cc1OC -5.79%, Cc1cc(C)c2oc(-c3cccc(NC(=O)c4cccc(F)c4)c3C)nc2c1 -6.28%, CCCCN(C)C(=O)CSc1c2c(nc3ccc(Cl)cc13)CCCC2 -16.4%, CCC(C)NC(=O)c1ccc(CNS(=O)(=O)c2ccc3c(c2)C(C)(C)C(=O)N3C)cc1 (centres undefined) -7.99%, Cc1cccc(Cn2c(=O)n(-c3cc(C)cc(C)c3)c(=O)c3oc4ccccc4c32)c1 -15.5%, CCc1nn(CCCC(=O)NCc2ccccc2OC)c(=O)c2cc3occc3n12 -18.9%, CCc1ccc(S(=O)(=O)Nc2ccc3c(c2)sc(=O)n3C)cc1 -0.442%, Cc1ccc(Cl)cc1NC(=O)CN1C=NS(=O)(=O)c2ccccc21 1.85%, Cc1ccc(Cl)cc1N1CCN(C(=O)C2CCN(S(=O)(=O)c3cn(C)cn3)CC2)CC1 -10.9%, Cc1cccc(N2CCN(CCCNC(=O)Cn3ncc4c([nH]c5ccccc54)c3=O)CC2C)c1 (centres undefined) -14.8%, Cc1cc(C)c2c(n1)nn1c(C)c(CCC(=O)Nc3cccc(C)c3C)c(C)nc21 11.5%, Cc1ccc(-c2nc3cccc(C)n3c2Nc2ccc3c(c2)OCCO3)cc1 -23.6%, COc1ccc(N(C)C(=O)Cn2cnc3sc(C)c(S(=O)(=O)N4CCN(c5ncccn5)CC4)c3c2=O)cc1 -27.8%, O=C(NCCS(=O)(=O)N1CCN(c2cccc(Cl)c2)CC1)C(c1ccccc1)c1ccccc1 -25.5%

activation, active:
Cc1ccc(CN2C(=O)SC(Nc3ccc(Cl)cc3)C2=O)cc1 (centres undefined) 61.5%, Cc1ccccc1-c1nc(CS(=O)(=O)CC(=O)NCCCc2ccccc2)c(C)o1 79.9%
